Results from PubChem BioAssay AID1508623 (National Center for Advancing Translational Sciences (NCATS), 2021).
About 450 (0.94%) of roughly 48,000 compounds were called active. Not shown: some 19% with an inconclusive outcome. Calls follow the shape of the dose curve; as a rule, active = well fitted inhibition curve with a large enough effect; inconclusive = small, poorly fitted or top-dose-only effect; inactive = no such curve, though single readings can be large or run the other way. This is one part of the list.

Test: Primary qHTS for Identification of Small Molecule Inhibitors of Huntingtin Promoter Activity; also: nearly all actives have a fitted effect of over 50% in size
Settings: HEK293 HTT promoter firefly luciferase reporter (activity 0% = vehicle and -100% = no light), 24 h; series mostly up to 57.5 µM; activity change, negative = inhibition: at the top concentration
Method in brief: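 Firefly luciferase readout (Dual-Glo, 10 min RT) after 24 h, 37 °C compound exposure (final up to 57.5 uM) of HEK293 reporter cells cultured 24 h beforehand; PTC124 at 50 uM final as control inhibitor; activity scaled vehicle 0%, zero RLU -100%.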

Activity change, negative = inhibition, inactive:
O=C(Cn1nnc2sc3c(c2c1=O)CCCC3)Nc1ccc(F)c(Cl)c1 -8.5%
CCCS(=O)(=O)NCCc1csc2nc(-c3ccc(OC)cc3)nn12 -12.3%
COc1ccc(C2NC(=O)NC(C)=C2C(=O)Nc2cc(C)cc(C)c2)c(OC)c1 (stereo not drawn) -1.27%
Cc1ccccc1CNC(=O)CCCn1nc(C)c2sc3ccccc3c2c1=O 5.88%
CCc1c(C)nc2nncn2c1Nc1ccc(C)c(F)c1 -35.7%
COc1ccccc1N(CC(=O)NCCSCc1ccc(Cl)cc1)S(C)(=O)=O -24.3%
CN(Cc1ccccc1)c1ncnc2c1nc1n2CCCC1 -8.05%
COc1cccc(C(=O)Nc2nnc(S(=O)(=O)N3CCOCC3)s2)c1 -4.57%
CCCCOc1cccc(C(=O)Nc2cccc3ccc(C)nc23)c1 -24.9%
Cc1ccc(CS(=O)(=O)Cc2ccc(C(=O)NCCc3ccc(Cl)cc3)o2)cc1 -4.07%
Cc1cc(C)c2c(=O)cc(C(=O)Nc3ccccc3Cl)oc2c1 5.4% [at 11.5 µM]
Cc1ccc2c(CC(=O)Nc3cc(C(F)(F)F)ccc3Cl)coc2c1C -7.58%
CCC12CN3CC(CC)(CN(C1)C3c1ccc(OCc3ccccc3)cc1)C2=O (stereo not drawn) -3.19%
CCOC(=O)c1c(C)[nH]c(C)c1S(=O)(=O)N1CCC(C(=O)Nc2ccccn2)CC1 0.0988%
O=S(=O)(O)NC1CCCCC1 9.47%
Cc1ccc2oc(=O)n(CCNC(=O)Nc3ccccc3Cl)c2c1 -11.9%
COc1ccc(C2CC(=O)Nc3c2c(=O)nc2c(C)cccn32)cc1 (stereo not drawn) -9.77%
O=c1oc2ccc(Br)cc2cc1-c1nc(-c2ccccc2)no1 -7.05%
CCC(C)NC(=O)C1CCC(CNS(=O)(=O)c2cccc3nsnc23)CC1 (stereo not drawn) -14.8% [at 11.5 µM]
CCS(=O)(=O)N1CC(=O)N(c2ccc(C)c(C)c2)C(C)(C(=O)NC2CCCCC2)C1 (stereo not drawn) 5.6%
CCc1ccc(-c2nc3c(c(SCc4ccc(F)cc4)n2)Cc2c(CO)cnc(C)c2O3)cc1 -18.2%
Cc1cccc(NC(=O)CSc2nc3c(oc4ccccc43)c(=O)n2C(C)C)c1 -24.3%
CC1=C(C(=O)NCCc2ccc(Cl)cc2)C2(CCCCC2)OC1=O -7.21%
COc1cccc(CNC(=O)Cn2ncc3c4ccccc4n(C)c3c2=O)c1 17.6%
COCCNC(=O)CCCn1c(SCC(=O)Nc2cccc(C)c2)nc2c(sc3ccccc32)c1=O -18.2%
COc1ccc(C(=O)c2oc3ccccc3c2NC(=O)COc2c(C)cc(C)cc2C)cc1 0.243%
COc1cccc(CNC(=O)c2c(O)nc3ccccn3c2=O)c1 -6.68%
CCOc1ccc(N2CC(c3nc4ccccc4n3CC(C)C)CC2=O)cc1 (stereo not drawn) 1.52%
COc1cc(-c2noc(-c3ccc(NCCc4ccccc4)c([N+](=O)[O-])c3)n2)cc(OC)c1OC 10.5%
CC(C)NC[C@@H](O)COc1cccc2ccccc12 3.99%
COc1cc(NC(=O)CCNS(=O)(=O)c2ccc3c(c2)CCN3C(=O)C2CC2)cc(OC)c1 5.74%
COCC(=O)N1CCc2cc(OC)c(OC)cc2C1COc1ccc2c(C)cc(=O)oc2c1 (stereo not drawn) -9%
Cc1ccc(C)c(N2CCN(C(=O)c3ccc4c(Cl)c5c(nc4c3)CCCC5)CC2)c1 -5.78%
O=C(Nc1sc2c(c1C(=O)NCc1ccccc1)CCCC2)c1cc(=O)c2cc(Cl)ccc2o1 19.4%
N#Cc1ccccc1Cn1nnc2c(=O)[nH]c(C3CCCN(S(=O)(=O)c4ccc(F)cc4)C3)nc21 (stereo not drawn) -12.9%
CCOc1ccccc1N1CC(c2nc3ccccc3n2CCCOc2ccccc2OC)CC1=O (stereo not drawn) 1.91%
O=C(NCc1ccccc1)C1CCC(CNS(=O)(=O)c2ccc(Br)s2)CC1 (stereo not drawn) -4.43%
CC1CCc2nn(CC(=O)Nc3cccc(C(F)(F)F)c3)c(=O)cc2C1 (stereo not drawn) -10.8%
COc1cc(NC(=O)Cn2c(=O)n(C(C)C)c(=O)c3oc4ccccc4c32)cc(OC)c1 -13.6%
O=C(Nc1cccnc1Cl)c1cc(-c2ccc(Cl)cc2)on1 2.55%
CCc1ccc(NC(=O)Cn2nnc(C(=O)NCc3ccco3)c2N)cc1 -12.7%
COc1cccc(COC(=O)c2ccc(-c3nnn(Cc4ccccc4)n3)cc2)c1 15.1%
CC1CCN(S(=O)(=O)c2cc(C(=O)NCc3ccc(F)cc3)n(C)c2)CC1 -25.9%
O=C1C(c2ccc(F)cc2)N(CCc2ccccc2)C(=O)CN1C1CCCCC1 (stereo not drawn) 13.2%
COc1ccc(CN(C(=O)Nc2ccc(C)c(F)c2)C2CCN(C(C)=O)CC2)cc1 -8.63%
CC(C)c1ccc(C(=O)Nc2cccc3cccnc23)cc1 44.7%
CC(=O)c1ccc(NC(=O)CCc2c(C)nn(-c3ccc4nncn4n3)c2C)cc1 -9.4%
CCOc1ccc(CCNS(=O)(=O)c2c(C)nc3sc(C)cn3c2=O)cc1OCC -2.36%
CCC1CN(C(=O)N2CCC(C(=O)NCCOC)CC2)c2ccccc2O1 (stereo not drawn) -1.26%
Cc1ccc(NC(=O)CCS(=O)(=O)c2ccc3nc(C)sc3c2)cc1 -5.04%
CCc1ccc(NC(=O)C2CCCN(S(=O)(=O)c3c(C)[nH]c(=O)[nH]c3=O)C2)cc1 (stereo not drawn) -4.16%
COC(=O)c1ccc(Cn2nc(-c3ccc(C)c(C)c3)ccc2=O)cc1 -23.2%
O=C(CCS(=O)(=O)c1cc2c3c(c1)CCN3C(=O)CC2)NCc1ccc(F)cc1 -21.7%
COCCc1nn2c(=O)cc(COC(=O)COc3ccccc3C)nc2s1 -5.49%
COc1ccc(Cl)cc1Nc1ncnc2c1nc1n2CCCC1 5.02%
O=C(Nc1noc2ccccc12)c1cccc(F)c1 67.2%
CC(C)c1ccc(NC(=O)C2CCCN(S(=O)(=O)c3cccc4nonc34)C2)cc1 (stereo not drawn) -11.9%
Cc1cc(C)c(NC(=O)CSc2nnc3[nH]c(=O)cc(C)n23)c(C)c1 -4.54%
O=c1c2ccccc2n2c(-c3ccc(F)c(F)c3)nnc2n1CCc1ccccc1 0.888%
CCC(=O)Nc1ccc2nc(SCC(=O)N3CCc4ccccc43)sc2c1 -10.7%
CCOC(=O)c1ccccc1NC1(c2ccc(OC)cc2)C(=O)c2ccccc2C1=O -20%
CCOC(=O)c1c(S(=O)(=O)N2CCCC(C(=O)Nc3ccc(C)cc3C)C2)c(C)n(CC)c1C (stereo not drawn) -7.31%
COC(=O)c1ccc(C2c3c(oc4cc(C)c(C)cc4c3=O)C(=O)N2c2ccccn2)cc1 (stereo not drawn) -4.72%
Cc1cc(C)c(NC(=O)Cn2c(=O)n(CCC(=O)NCc3ccc4c(c3)OCO4)c(=O)c3ccccc32)c(C)c1 -16.5%
CCOC(=O)C1CCN(C(=O)CSc2c3c(nc4ccc(Cl)cc24)CCCC3)CC1 -30.4%
CC(=O)Nc1ccc(C(=O)CSc2nnc3cc(C)c4ccccc4n23)cc1 -9.55%
COc1ccc(CCC(=O)NC2CC(=O)N(c3ccc(C)c(C)c3)C2)cc1 (stereo not drawn) -13.4%
Cc1ccc(NC(=O)c2sc3nc(-c4ccc(F)cc4)cn3c2C)c(C)c1 -15.2%
Cc1ccc(CNC(=O)c2ccc(-c3nc(CN4CCc5ccccc54)c(C)o3)cc2)cc1 -36.2%
CCCCNC(=O)c1ccc2c(=O)n(-c3ccccc3)c(=O)[nH]c2c1 -17.8%
CCOc1ccc(CCNC(=O)CSc2cc(=O)n(C)c3ccccc23)cc1OCC -15.7%
COc1ccc(CNC(=O)C(=O)NCC(c2ccc3c(c2)OCO3)N2CCOCC2)cc1 (stereo not drawn) -2.51%
CCOC(=O)Cn1c(=O)oc2cc(S(=O)(=O)NCc3ccc(F)cc3)ccc21 -17.4%
CCCCC(CC)COC(=O)/C=C/c1ccc(OC)cc1 (stereo not drawn) 14.3%
Cc1ccc(Cl)cc1N1CCN(C(c2ccc(F)cc2)c2nnc(-c3ccccc3)o2)CC1 (stereo not drawn) -8.83%
O=C(CSc1n[nH]c(-c2ccccc2)n1)N1CCCCC1 55%
COC(=O)c1sccc1S(=O)(=O)N1CCN(c2cccc(C)c2C)CC1 -19.4%
CCOc1ccc(CC(=O)NCCc2csc3nc(-c4ccccc4F)nn23)cc1 -13.1%
CCN(CC)CCc1nc(-c2ccccc2)no1 6.98%
CCc1ccc(-n2nc3ccc(NC(=O)c4cc5ccccc5o4)cc3n2)cc1 -4.65% [at 11.5 µM]
CC(C=CC(=O)NO)=C[C@@H](C)C(=O)c1ccc(N(C)C)cc1 25.2%
CCOc1ccc(-c2cc3c(=O)n(Cc4nc(-c5cccc(OC)c5OC)oc4C)ccn3n2)cc1Cl -1.81%
CCN(Cc1ccc(OC)cc1)c1ccc(-c2nc(-c3ccncc3)no2)cc1[N+](=O)[O-] -33%
Cc1cc(C)c(Cn2c3ccccc3c3cnn(CC(=O)NCCCc4ccccc4)c(=O)c32)c(C)c1 -24.4%
O=C(NCCc1ccccc1)c1ccc(Cn2c(SCc3ccc(F)cc3)nc3cccnc32)cc1 -14.4%
Cc1ccccc1Nc1c(-c2ccsc2)nc2c(C)cccn12 -13.6%
O=C(NCc1cccc(Cl)c1)c1cccn1-c1nnc(N2CCCC2)s1 -15%
COc1ccc(OC)c(S(=O)(=O)N2Cc3ccccc3CC2C(=O)Nc2ccc(C(C)=O)cc2)c1 (stereo not drawn) -11.2%
COc1ccc(OC)c(CCNC(=O)CCn2c(=O)c3cccn3c3cccnc32)c1 14.4%
CCCCN(c1ccccc1)c1ncnc2c1cnn2-c1ccc(Cl)cc1 -21.1%
CC(C)Cn1c(=O)c2ccccc2n2c(-c3ccc(Br)cc3)nnc12 -9.2%
Cc1ccc(CN(Cc2ccco2)c2cnc(S(C)(=O)=O)nc2C(=O)Nc2ccc(Br)cc2)o1 -37.8%
Cc1ccccc1NC(=O)Cn1c(=O)n(Cc2ccc3c(c2)OCO3)c(=O)c2oc3ccccc3c21 -1.44%
Cc1ccc(-c2cn3cccc(C)c3n2)cc1NS(=O)(=O)c1ccccc1 -6.66%
CCCCc1nc(Cl)c(CO)n1Cc1ccc(-c2ccccc2-c2nn[nH]n2)cc1 8.31%
Cc1ccc(-c2nn3c(C)nnc3c3ccccc23)cc1S(=O)(=O)NCCO 16.4%
CCOc1cc(C(=O)OCc2cc(=O)n3c(C)csc3n2)cc(OCC)c1OCC -12.2%
CC(=O)Nc1ccc(S(=O)(=O)NCC2CCC(C(=O)NCCCOC(C)C)CC2)cc1 (stereo not drawn) 18.5%
